# Assay results published in the supplement of paper PMC3334620.
# In all, about 33,000 sequences were measured (“E-score (-0.5 to 0.5)”: median about -0.036, highest 2% from about 0.37 on). This is one part of the list.
# Target: T1, Yer064c (UniProt P40041)
# T1 sequence: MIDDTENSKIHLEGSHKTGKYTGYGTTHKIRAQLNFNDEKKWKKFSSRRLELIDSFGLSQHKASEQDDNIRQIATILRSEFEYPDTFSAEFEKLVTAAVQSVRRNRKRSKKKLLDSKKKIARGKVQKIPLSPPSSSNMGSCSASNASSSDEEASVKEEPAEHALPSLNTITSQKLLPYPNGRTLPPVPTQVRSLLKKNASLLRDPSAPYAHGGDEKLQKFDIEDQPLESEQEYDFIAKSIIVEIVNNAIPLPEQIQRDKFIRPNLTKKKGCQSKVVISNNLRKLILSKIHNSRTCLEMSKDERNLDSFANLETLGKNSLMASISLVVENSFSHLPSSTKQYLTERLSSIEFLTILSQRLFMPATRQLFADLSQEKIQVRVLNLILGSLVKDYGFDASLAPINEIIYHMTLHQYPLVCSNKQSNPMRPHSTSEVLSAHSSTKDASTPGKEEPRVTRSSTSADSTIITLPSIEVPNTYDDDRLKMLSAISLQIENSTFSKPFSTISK
# Test: PBM E-score (8-mer binding enrichment) (E-score (-0.5 to 0.5)); higher = stronger / more preferred TF binding; most listed sequences are background and not binding sites
# Details: protein concentration: 200 nM; construct: GST-full length
# Procedure, shortened: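 Universal all-10-mer Agilent arrays, fresh or stripped once, were converted to double-stranded form by primer extension. GST-tagged yeast transcription factors from PURExpress in vitro transcription/translation, full-length or DNA-binding domain only, were applied at about 100-200 nM and detected with fluorescent anti-GST. After masliner normalisation, the Universal PBM Analysis Suite scored each ungapped eight-base word together with its reverse complement by E-score.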
row,Sequence,PBM E-score
1,AACGACCT,0.08
2,GCGTGTGA,0.0238
3,TTCATGAA,0.24
4,CAGCGCGA,-0.12
5,GGAGTAAC,0.0622
6,AGCGATCA,-0.0759
7,CGCTACCG,-0.267
8,GGTCTCTA,-0.17
9,AGCATAGC,-0.0852
10,GGTTGGTA,-0.0591
11,GCATCCCA,-0.162
12,AAAGCAGG,0.0666
13,TGCCGGCA,-0.405
14,CATGGGGG,-0.139
15,GCCCCGAA,-0.23
16,CAGCTCTA,-0.207
17,CTATGATA,0.00827
18,AAGTTCCG,-0.118
19,GTGCAGGA,-0.211
20,AAAAATCG,-0.149
21,AAGCTCCT,-0.0527
22,AAACGGGA,-0.154
23,ACTTCTTA,-0.0384
24,TACTGAGA,0.127
25,CTTGTGGC,-0.085

row,Sequence,PBM E-score
1,ATTATAAT,0.183
2,GTACGTTA,0.0289
3,ACCTCCGT,-0.0377
4,CACTTAAC,0.11
5,CACGGCAC,-0.095
6,GGGTCTTA,0.0907
7,ACAATCAG,0.157
8,ACGCCAGT,-0.091
9,ACCAACTC,0.0794
10,CCAGAAAC,-0.141
11,CTTATACC,0.0132
12,AGTCTAAA,0.288
13,CTTCCGAC,0.0148
14,GGGGCCCC,-0.304
15,GTTTCGTA,0.0435
16,AAGTTGCA,-0.213
17,AAGCGGCA,-0.244
18,GAAGCAAA,-0.0233
19,AGTACGAT,0.123
20,CGGGGCGA,0.0815
21,AACCCAAG,-0.0942
22,CAGTAGGC,-0.0618
23,TGTACGAA,-0.0717
24,GTTATATA,0.0615
25,CCGCGCGA,-0.0349

row,Sequence,PBM E-score
1,ATCAACTC,0.18
2,CTCGAGAC,0.163
3,CTATCGGC,-0.0556
4,CGTTGTGC,-0.0189
5,AAGGCGAC,-0.102
6,ACGGCAGT,-0.135
7,CACACTCG,0.191
8,CAGCTGAC,0.195
9,GCAGGAGC,-0.189
10,CACGTCGC,-0.152
11,ATCCACAA,0.0894
12,ATTCCTTC,-0.0273
13,GAGATATA,0.025
14,AGTTGTGA,0.195
15,AATACGGC,-0.0116
16,ACGAATAC,0.081
17,GGAAACAA,-0.154
18,ACACCATG,-0.0612
19,CCAAACAA,-0.00311
20,CCTTGTAA,-0.157
21,ATTATTGC,0.0714
22,CCGCCCGC,-0.148
23,GATCAGAC,0.0134
24,AAGCCTCG,-0.15
25,TAGATTAA,0.275

row,Sequence,PBM E-score
1,AGACTCTA,0.267
2,CCCGGCTC,-0.249
3,CCTTCGAA,-0.0709
4,CGAGCGTC,-0.155
5,ACACTAAT,0.0115
6,CGGCTGTC,-0.231
7,CCCCTGTA,-0.105
8,AACAATCC,0.0918
9,CAATCAAA,0.142
10,CCCAACAC,-0.294
11,CACTATGA,0.193
12,ACTATAAT,0.283
13,AGGAAATC,0.0855
14,CCACAAAA,-0.0612
15,ACGTTGCG,-0.176
16,CCTGTAAC,-0.132
17,GCCATAGC,-0.0768
18,AAATCATC,0.403
19,AAAAATGT,-0.122
20,AGACTCTG,0.301
21,AAGAGGCA,-0.0452
22,AAGTAGCT,-0.154
23,GTTGTATA,-0.0846
24,AGAACAAG,-0.0488
25,AATGATCC,-0.00231

row,Sequence,PBM E-score
1,CACGTGCC,-0.137
2,AGTTAGAG,0.143
3,CTGTTTCC,-0.201
4,CCAAGCAA,-0.173
5,GTTAGTGA,0.171
6,AGAATTGA,0.0843
7,ACGTGTGC,-0.194
8,AAAGTCGG,-0.0666
9,AGGTCTGA,0.108
10,AGCAGTGG,-0.244
11,GACGGAAC,0.0216
12,TTATCCAA,0.193
13,AACGCCGA,-0.0821
14,CTGCGACC,-0.141
15,AGCGGAAC,-0.0183
16,ATAGCGGA,-0.0727
17,GGACAATA,-0.0724
18,CTAGCTTA,0.112
19,GACAGCGC,-0.089
20,ACTCGAGG,-0.00534
21,AGAAAAAT,0.053
22,CCTTGCCG,-0.189
23,CTTTCATC,-0.00122
24,TCATACGA,0.139
25,CGCGGCCC,-0.378

row,Sequence,PBM E-score
1,GAGCTGAC,0.293
2,CTTTAGCA,-0.154
3,CGGAAGAC,0.0876
4,ACATGTGG,0.119
5,AAGTTGGA,0.0501
6,GCCTTAAA,0.0855
7,CATCAGAC,0.228
8,CACTATTA,0.0522
9,ACGCCCAT,-0.147
10,CGGTTTAA,-0.0168
11,CGTTAGGA,0.0277
12,GCAGAAAA,0.00962
13,CCATGAGG,-0.305
14,ACCCATGG,0.113
15,CGATATTA,0.126
16,ATTACTGC,0.101
17,AGCTCCCA,-0.167
18,GTAGAGAA,-0.00676
19,CCAGAATA,-0.117
20,AAAAACTC,0.101
21,AACATCTA,-0.0661
22,CCAACTAA,0.0435
23,ACCGTGCA,-0.0752
24,CACGGTCC,-0.289
25,CCACTTCA,-0.1

row,Sequence,PBM E-score
1,ACCCTTCC,0.0155
2,CAGATTCA,0.157
3,GTGGTAAA,-0.067
4,GATTCTGC,0.187
5,ACTTCGGC,0.0486
6,ATCAAACG,0.0507
7,GCGATCGA,-0.251
8,GCTAATTA,0.0849
9,ATCCCGAT,0.0298
10,ATTGAAAA,0.126
11,GAGTTTGC,-0.00893
12,CTAAGCTC,0.0364
13,ACGGCCCT,-0.385
14,ATGGTGCG,-0.172
15,CACTTAAG,0.149
16,GCCCATGA,-0.0169
17,GCACGCCC,-0.212
18,AATCATGT,0.453
19,GGTCCTCA,-0.0925
20,ACATAACA,0.0324
21,AGGTGACA,-0.0676
22,AATGGCAG,-0.187
